Among all 370,000 compounds or so, about 500 (0.14%) were called active. The shares of active, inactive and inconclusive entries below differ from those in the screen. The call rests on the fitted dose curve; in most records, active means well fitted activation curve with a large enough effect; inconclusive means small, poorly fitted or top-dose-only effect; inactive means no such curve, though single readings can be large or run the other way. Potencies of inconclusive entries are left out as doubtful fits. More than one record can exist for a structure, and the calls need not agree.
assay: qHTS of alpha-syn Inhibitors; settings: Yeast expressing alpha-synuclein, BacTiter-Glo, 24 h; Potency: growth rescue unless noted; growth rescue (activation): at 46.1 µM (top of the series) unless noted; further: nearly all actives have a fitted effect of over 65% in size; on growth rescue (activation): % of control where 0% means no effect
Outline: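 Galactose-induced alpha-syn yeast (OD600=0.02, raffinose-pregrown) + pinned cpd, 24 hr, 30 deg C; growth by BacTiter-Glo luminescence. Growth restoration scores as activation.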
Potency means the concentration at half of the fitted maximal effect; tags describe the fitted curve by direction and shape.

Row | SMILES | Potency | growth rescue (activation)
1 | CCOc1cc(-c2cc(-c3ccc(OC)cc3)nc(N)c2C#N)ccc1O | inconclusive [activator, single point] | –
2 | COc1ccc(S(=O)(=O)Nc2cc(Cl)ccc2OC)cc1 | inactive | –
3 | COc1ccc(CN2C(=O)C(CC(=O)NCC3CCCCC3)CC(C(=O)N(C(C)C)C(C)C)=C2C)cc1 (stereo unspecified) | inconclusive [activator, single point] | –
4 | CCOc1ccc(S(=O)(=O)NCc2cccnc2)cc1C(C)C | inactive | –
5 | CCOc1ccccc1CNC(=O)c1ccc2c(c1)N(CC)CCS2 | inconclusive [activator, single point] | –
6 | CCN(Cc1ccccc1)C(=O)c1ccc(N(C)S(=O)(=O)c2ccc(C)cc2)cc1 | inconclusive [activator, single point] | –
7 | Cc1ccc2ccc(C(Nc3ccccc3)c3ccc(Cl)cc3)c(O)c2n1 (stereo unspecified) | inconclusive [activator, single point] | –
8 | CCOC(=O)NN=C1c2ccccc2-c2ccccc21 | inactive | –
9 | Cc1ccccc1-c1cc2nc(NCc3ccc(N(C)C)cc3)n(C)c(=O)c2s1 | inconclusive [activator, single point] | –
10 | COC(=O)C12OCC34C(CC5C(C)=C(O)C(=O)CC5(C)C3C(O)C1O)OC(=O)C(OC(=O)C=C(C)C)C24 (stereo unspecified) | inconclusive [activator, single point] | –
11 | O=C(CSc1nnc(-c2ccccc2Br)n1-c1ccccc1)c1ccc(F)cc1 | inconclusive [activator, single point] | –
12 | Clc1ccc(-n2nnnc2-c2cnc3ccccc3c2-c2ccccc2)cc1 | inconclusive [activator, single point] | –
13 | CCCCOC(=O)C1=C(C)NC2=C(C(=O)CCC2)C1c1cc(OC)ccc1OC (stereo unspecified) | inconclusive [activator, single point] | –
14 | COc1cc2c(cc1OC)-c1cc(=Nc3c(C)cc(C)cc3C)n(C)c(=O)n1CC2 | inactive | –
15 | O=C(Nc1cccc(F)c1)c1cc(S(=O)(=O)NCCC2=CCCCC2)ccc1F | inconclusive [activator, single point] | –
16 | COc1ccc(C(C)(O)c2nc(-c3cccc(F)c3)cs2)cc1 (stereo unspecified) | – | inconclusive: 64.9% [activator]
17 | CC(=O)Nc1ccc(-c2csc(NC(=O)c3ccc(C)o3)n2)cc1 | inactive | –
18 | COc1ccc(Cc2c(-c3ccccc3)nc3c4ccccc4ccn23)c(C)c1 | inactive | –
19 | COc1ccc(C(=O)c2sc(NC(C)C)nc2N)cc1OC | inactive | –
20 | Cc1ccc(C)c(C(=O)N2CCN(c3ncccn3)CC2)c1 | inconclusive [activator, single point] | –
21 | COc1cc(C#Cc2c(-c3cncn3C)n(C)c3ccc(-c4cnc(OC)nc4)cc23)cc(OC)c1 | inactive | –
22 | Cc1onc(-c2ccccc2)c1C(=O)NC(=S)NNC(=O)c1ccc(O)cc1 | inconclusive [activator, single point] | –
23 | CCOc1ccc(C(=O)CCC(=O)NCC(=O)Nc2ccc(F)c(F)c2F)cc1 | active: 28.2 µM | –

Row | SMILES | Potency | growth rescue (activation)
24 | C[N+]1(CC(=O)c2ccc3ccccc3c2)CCOCC1 | inconclusive [activator, single point] | –
25 | O=C(Cc1ccc(Oc2ccccc2)cc1)NO | inconclusive [activator, single point] | –
26 | O=C1C(=Cc2cccc(O)c2O)SC(=S)N1CCCN1CCOCC1 | inactive | –
27 | COc1ccc(N2CCN(C(=O)CN=C3NS(=O)(=O)C(c4ccc(C)cc4)=C3C)CC2)cc1 | inconclusive [activator, single point] | –
28 | CCOC(=O)C[C@H]1c2ccc(C(F)(F)F)cc2S(=O)(=O)N1C1CCCC1 | inconclusive [activator, single point] | –
29 | CCc1cc(=O)oc2c3c(cc(OCC(=O)NCc4ccncc4)c12)OC(C)(C)CC3 | inactive | –
30 | CCNC(=O)N1CCN(CCCC(c2ccc(F)cc2)c2ccc(F)cc2)CC1 | inconclusive [activator, single point] | –
31 | O=C(CCCC(=O)N(c1ccc2c(c1)OCCO2)C(C(=O)NC1CCCCC1)c1ccc(Cl)cc1)Nc1ccccn1 (stereo unspecified) | inactive | –
32 | Cc1nc2cc(Cl)c(Cl)cc2n1-c1ccccn1 | inactive | –
33 | COc1ccc(N2CCN(C(=O)COc3ccc(Cl)cc3Cl)CC2)cc1 | inconclusive [activator, single point] | –
34 | CCCCN(CC)CCCNC(=O)c1cn(C)c(=O)c2c1c1ccccc1n2C | inconclusive [activator, single point] | –
35 | COc1ccccc1/C=C/c1ccc2cccc(O)c2n1 | inconclusive [activator, single point] | –
36 | Cc1onc(-c2c(F)cccc2Cl)c1C(O)c1ccc(F)cc1 (stereo unspecified) | inconclusive [activator, single point] | –
37 | CCOC(=O)c1c(C)[nH]c(C(=O)OCC(=O)NC2CCS(=O)(=O)C2)c1C (stereo unspecified) | inactive | –
38 | COc1ccc(NC(=O)/C=C/c2ccc(Cl)cc2)cc1 | inactive | –
39 | O=C(N/N=C/c1cc([N+](=O)[O-])ccc1O)C1CCCCC1 | active: 3.98 µM | –
40 | CCC(C)C(=O)Nc1nc2ccc(OC)cc2s1 (stereo unspecified) | inconclusive [activator, partial curve] | –
41 | C=CCn1c(SCn2nnc3ccccc3c2=O)nc2scc(-c3cccs3)c2c1=O | inconclusive [activator, partial curve] | –
42 | COc1cc(NC(=O)c2cc(-c3cc(F)ccc3OC(C)C)n[nH]2)cc(OC)c1OC | inactive | –
43 | CCOc1ccc(NC(=O)c2nc(S(=O)(=O)Cc3ccccc3F)ncc2Cl)cc1 | active: 11.2 µM | –
44 | O=C(OC1CC2CC1[C@H]1CCCCN1C2=O)N1CCCCC1 (stereo partly specified) | inconclusive [activator, single point] | –
45 | Cc1ccc(C(=O)NCc2ccc(Cl)c(Cl)c2)o1 | inactive | –
46 | Brc1cnc(N2CCOCC2)nc1N1CCCCC1 | inconclusive [activator, single point] | –
